Experimental data from publication PMC4030788 (Biochemistry, 2014).
Values joined by “and” are separate entries in the source; they are usually repeats but may differ in a detail not shown here. Equal entries are not always repeated.

B1: SecA K4Q/K8Q (natural protein)
chain: not shown
B2: SecA Δ2–8 (natural protein)
chain: not shown
B3: SecA L2A/I3A/L5A/L6A (natural protein)
chain: not shown
B4: SecA Δ2–9 (natural protein)
chain: not shown
B5: SecA Δ2–10 (natural protein)
chain: not shown
B6: SecA E665A (natural protein)
chain: not shown
B7: SecA D568A (natural protein)
chain: not shown
B8: SecA Q662A (natural protein)
chain: not shown
B9: SecA R342 single-alanine substitution mutant (natural protein)
chain: not shown
B10: SecA Q801A (natural protein)
chain: not shown
B11: SecA L818 single-alanine substitution mutant (natural protein)
chain: not shown
B12: SecA L815 single-alanine substitution mutant (natural protein)
chain: not shown
B13: SecA F811 single-alanine substitution mutant (natural protein)
chain: not shown
B14: SecA E635A (natural protein)
chain: not shown
B15: SecA K800 single-alanine substitution mutant (natural protein)
chain: not shown
B16: SecA D640 single-alanine substitution mutant (natural protein)
chain: not shown
B17: SecA K633 single-alanine substitution mutant (natural protein)
chain: not shown
B18: SecA E802 single-alanine substitution mutant (natural protein)
chain: not shown
B19: SecA K8A (natural protein)
chain: not shown
B20: SecA N629A (natural protein)
chain: not shown
B21: SecA K625A (natural protein)
chain: not shown

Molecular target: the molecule itself
Assay: AUC

Protein | Kd [µM]
B1 | 9.2 ± 0.7
B2 | 20.3 ± 1
B3 | 62 ± 7
B4 | 17.1 ± 1.2
B5 | 97.5 ± 18.7

Molecular target: the molecule itself
Assay: AUC
Remark: another data set of the same source

Protein | Kd
B6 | 12.6 µM and 12.8 µM

Molecular target: the molecule itself
Assay: AUC
Remark: another data set of the same source

Protein | Kd [µM]
B7 | 4.8 ± 0.8
B8 | 0.1 ± 0.01
B9 | 3.7 ± 0.2
B10 | 2.6 ± 0.3
B11 | 3.4 ± 0.1
B12 | 2.2 ± 0.03
B13 | 2.3 ± 0.1
B14 | 2.3 ± 0.8
B15 | 3.2 ± 0.3
B16 | 1.6 ± 0.01
B17 | 3.6 ± 0.1
B18 | 3.3 ± 0.3
B19 | 8.6 ± 0.5
B6 | 12.7 ± 0.3
B20 | 2.3 ± 0.4
B21 | 2.7 ± 2.4
